Reference: paper PMC4336329 (PLoS ONE, 2015)
About 14,000 (4.5%) of roughly 310,000 compounds showed an effect of 50% or more. The effect is printed as a negative number. Some of the results follow.

biological target: human ether-à-go-go-related gene (hERG) potassium channel (human, UniProt Q12809); test: primary screen, population patch clamp on CHO cells stably expressing hERG
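Also: peak tail current of the secondary pulse compared with the same well before compound.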

human ether-à-go-go-related gene (hERG) potassium channel, sequence (Q12809 whole entry, looked up): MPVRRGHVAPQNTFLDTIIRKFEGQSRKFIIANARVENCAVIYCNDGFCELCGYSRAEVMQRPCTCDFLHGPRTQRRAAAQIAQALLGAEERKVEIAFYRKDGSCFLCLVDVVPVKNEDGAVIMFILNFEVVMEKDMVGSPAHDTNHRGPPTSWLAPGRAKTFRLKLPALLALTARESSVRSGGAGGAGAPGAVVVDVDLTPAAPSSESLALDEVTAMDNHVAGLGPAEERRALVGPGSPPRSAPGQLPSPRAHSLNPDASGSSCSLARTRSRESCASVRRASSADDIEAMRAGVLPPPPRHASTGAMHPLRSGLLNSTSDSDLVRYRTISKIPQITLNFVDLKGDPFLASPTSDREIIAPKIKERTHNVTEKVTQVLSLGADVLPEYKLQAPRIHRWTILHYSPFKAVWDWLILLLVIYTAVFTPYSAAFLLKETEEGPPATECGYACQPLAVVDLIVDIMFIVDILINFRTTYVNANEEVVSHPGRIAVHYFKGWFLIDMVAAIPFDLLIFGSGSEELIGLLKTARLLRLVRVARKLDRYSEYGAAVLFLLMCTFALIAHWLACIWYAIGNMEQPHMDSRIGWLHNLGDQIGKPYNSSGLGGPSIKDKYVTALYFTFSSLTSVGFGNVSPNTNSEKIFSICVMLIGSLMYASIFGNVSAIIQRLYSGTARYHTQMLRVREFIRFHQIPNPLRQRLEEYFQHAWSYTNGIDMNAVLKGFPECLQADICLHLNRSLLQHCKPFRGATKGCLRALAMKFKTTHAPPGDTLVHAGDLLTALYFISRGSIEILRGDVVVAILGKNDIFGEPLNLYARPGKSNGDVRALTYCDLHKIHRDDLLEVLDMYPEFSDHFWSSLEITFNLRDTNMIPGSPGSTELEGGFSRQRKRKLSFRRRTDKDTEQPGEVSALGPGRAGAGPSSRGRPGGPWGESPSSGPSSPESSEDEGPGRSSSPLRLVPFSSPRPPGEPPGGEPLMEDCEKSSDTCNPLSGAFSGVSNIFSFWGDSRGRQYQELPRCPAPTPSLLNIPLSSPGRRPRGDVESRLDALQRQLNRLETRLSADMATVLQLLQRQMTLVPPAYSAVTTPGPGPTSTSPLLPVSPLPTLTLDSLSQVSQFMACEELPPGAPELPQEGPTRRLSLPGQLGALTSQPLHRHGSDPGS

Row | Structure (SMILES) | hERG current change (%, negative = inhibition) at 10uM
1 | Cc1csc(SC(C)c2nc3scc(-c4ccccc4)c3c(=O)[nH]2)n1 (stereo not drawn) | 6.61%
2 | CCCCCc1nc2c(c3c1CCCC3)CCCC2 | -71.7%
3 | CNC(=O)NC(=O)COC(=O)c1ccc(-n2c(C)ccc2C)cc1 | -7.41%
4 | CCOC(=O)N1CCN(C(=O)C2CCN(S(=O)(=O)c3cc(Cl)ccc3Cl)CC2)CC1 | -32.4%
5 | CCC(=O)Nc1cc(-c2nn3c(C)nnc3s2)ccc1C | 7.79%
6 | COc1ccc(C2SCC(=O)N2c2c(C)n(C)n(-c3ccccc3)c2=O)c(OC)c1 (stereo not drawn) | 3.29%
7 | CN(C)S(=O)(=O)c1cccc(NC(=O)c2cc(-c3cccs3)nn2-c2cccc(Cl)c2)c1 | 11.6%
8 | CCOC(=O)COc1ccc(C(=O)Nc2cccc(Cl)c2C)cc1 | 18.9%
9 | CCCn1ncc(C(=O)O)c1C | 11.1%
10 | COC(=O)C1=C2SC(C)C(=O)N2C(N)=C(C#N)C1c1cc(OC)c(OC)c(OC)c1 (stereo not drawn) | -2.42%
11 | O=C(c1cc(C2CC2)nn1-c1ccccc1)N1CCN(c2ncc(C(F)(F)F)cc2Cl)CC1 | -12.9%
12 | CCOc1ccc(CCNC(=O)COC(=O)c2cccc(S(=O)(=O)N3CCCC3)c2)cc1OCC | -12.3%
13 | CC(C)Cn1nc(NS(=O)(=O)c2ccccc2)c2cc3ccccc3nc21 | 6.23%
14 | Cc1ccc(NC2c3ncccc3C(=O)N2Cc2ccco2)c(C)c1 (stereo not drawn) | -6.03%
15 | CC(C)=CCc1c(O)cc2c(=O)c3ccc(O)cc3oc2c1O | -4.26%
16 | Cc1sc2c(=O)n3c(nc2c1C(=O)NC1CCCCC1)CCCCC3 | 6.81%
17 | O=C(c1ccccc1O)N1N=C(c2ccccc2)CC1(O)C(F)(F)F (stereo not drawn) | -9.34%
18 | COc1cccc(NC(=O)CN(C)C(=O)c2cccnc2Sc2ccc(C)c(C)c2)c1 | 14.3%
19 | CCc1cccc(CC)c1NC(=O)CN1CCc2cc(OC)c(OC)cc2C1 | 17.2%

Row | Structure (SMILES) | hERG current change (%, negative = inhibition) at 10uM
20 | CCC(C)c1ccc(O)c(NC(=O)c2cccnc2)c1 (stereo not drawn) | 9.34%
21 | Fc1cccc(NC(=S)NCc2cccnc2)c1 | 9.79%
22 | COc1ccccc1C(=O)Nc1c(C(=O)N2CCN(C)CC2)oc2ccccc12 | -45.2%
23 | O=C(c1ccc([N+](=O)[O-])cc1)N1CCN(c2cccc3[nH]ccc23)CC1 | -72.7%
24 | O=C(c1ccco1)N1CCN=C1SCc1c(F)cccc1Cl | -3.64%
25 | Nc1nccnc1C(=O)OCC(=O)Nc1cccc(S(=O)(=O)N2CCCCC2)c1 | -34.1%
26 | Clc1cccc(CNCCNCc2cccc(Cl)c2)c1 | -46.2%
27 | COc1ccccc1-n1c(CNCC2CCCO2)nc2ccccc2c1=O (stereo not drawn) | -8.61%
28 | COc1ccccc1N(C)S(=O)(=O)c1ccc(C(=O)N(C)Cc2ccc(Cl)s2)cc1 | -18.5%
29 | CN(C)c1ccc(Sc2nnc(NC(=O)Nc3ccc(Cl)cc3Cl)s2)cc1 | 12.2%
30 | C/C(=N\N=C\c1ccc(N(C)C)cc1)c1cccc([N+](=O)[O-])c1 | 1.88%
31 | COc1ccccc1CN1CCNC(=O)C1CC(=O)N(C)CC1CCOCC1 (stereo not drawn) | 21.3%
32 | CCCCc1cc(=O)oc2cc(C)cc(OCC(=O)N3CCC(C(=O)O)CC3)c12 | 13.2%
33 | CCCC(=O)Nc1cc(C)cn(Cc2c(F)cccc2Cl)c1=O | 0.776%
34 | C[C@@H](O)c1nc2ccccc2n1N | 9.12%
35 | COc1ccc(Cl)cc1NS(=O)(=O)c1ccc(S(=O)(=O)N2CCCC2)cc1 | -14.2%
36 | O=C(Nc1ccc(Cl)cc1F)C1CC1c1ccccc1 (stereo not drawn) | 12.6%
37 | Cc1c(C(=O)Cc2ccccc2)n(C)c2ccccc12 | 10.8%
38 | Cc1csc(NC(=O)C2=COCCO2)n1 | 8.14%

Row | Structure (SMILES) | hERG current change (%, negative = inhibition) at 10uM
39 | CC(=O)c1nc(-c2ccccc2)sc1C | 4.79%
40 | O=[N+]([O-])c1cc(C(F)(F)F)cc([N+](=O)[O-])c1NCCN1CCNCC1 | 4.88%
41 | O=C(Nc1ccc(-c2nnco2)cc1)c1ccccc1 | 12.4%
42 | CC(=O)Nc1ccc(NS(=O)(=O)c2cc([N+](=O)[O-])ccc2C)cc1 | -7.26%
43 | Cc1ccc2[nH]c(-c3cccc(N)c3)cc2c1 | 18.4%
44 | O=C(Nc1ccc(-c2cn3ccccc3n2)cc1)c1cccs1 | 7.11%
45 | CCCCc1cc(=O)oc2cc(OCC(=O)Nc3cccnc3)c(Cl)cc12 | 17.1%
46 | Cc1ccc(NCc2ccccc2OCc2ccccc2F)cc1 | 14%
47 | COc1ccc(Br)cc1S(=O)(=O)N1CCCc2ccccc21 | 7.2%
48 | CCN1CCCC1CNC(=O)C(=O)NCc1ccccc1 (stereo not drawn) | -11.6%
49 | C[C@@H](Nc1nc(-c2ccccc2)nc2c1oc1ccccc12)C(=O)O | 8.49%
50 | CC(C)(C)NC(=O)C(c1ccccc1)N(Cc1cccs1)C(=O)c1csnn1 (stereo not drawn) | -5.27%
51 | COc1cc(NC(=O)CSc2nc3[nH]c(=O)cc(O)c3s2)cc(OC)c1OC | 11.2%
52 | CCOc1cc(/C=N/NC(=O)c2ccccn2)ccc1OC(=O)c1cccs1 | 3.92%
53 | COCCN(C(=O)CCC(=O)Nc1nccs1)C(C(=O)NCCC(C)C)c1ccc(OC)cc1 (stereo not drawn) | -2.09%
54 | Fc1ccc(-c2cc(C(F)(F)F)nc(-n3cc(Cl)cn3)n2)cc1 | -3.04%
55 | O=C1c2oc3ccccc3c(=O)c2C(c2ccccn2)N1Cc1ccccc1 (stereo not drawn) | 5.53%
56 | CC(NC(=O)c1cccnc1)c1ccc2c(c1)OCO2 (stereo not drawn) | 2.4%
57 | CCOC(=O)c1c(N)n[nH]c1-c1ccc(OC)cc1 | -5.63%
